# In the supplement of paper PMC8728848:
# This is one part of the list.
# B1: FaeGac (Escherichia coli) (protein)
# chain: WMTGDFNGSVDIGGSITADDYRQKWEWKVGTGLNGFGNVLNDLTNGGTKLTITVTGNKPILLGRTKEAFATPVTGGVDGIPHIAFTDYEGASVVLRNPDGETNKKGLAYFVLPMKNAEGTKVGSVKVNASYAGVLGRGGVTSADGELLSLFADGLSSIFYGGLPRGSELSAGSAAAERTKLFGSLSRNDILGQIQRVNANITSLVDVAGSYRENMEYTDGTVVSAAYALGIANGQTIEATFNQAVTTSTQWSAPLNVAITYY
# Key:
# Test in all cases: glycan array binding signal (z-score within array); higher = stronger binding
# Details in all cases: glycan notation: IUPAC condensed, linker removed
# Gal6S(b1-4)GlcNAc = target: Gal6S(b1-4)GlcNAc
# How it was run: (§1)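 The Consortium for Functional Glycomics database supplied 3228 glycan arrays, of which those lacking an available protein sequence were dropped. The binding signal, a within-array Z-score, was averaged across arrays of the same protein sequence and across linkers. Negative scores can be read as non-binding.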
# GalNAc(a1-3)Gal = target: GalNAc(a1-3)Gal
# How it was run: as §1
# GalNAc(a1-3)GalNAc = target: GalNAc(a1-3)GalNAc
# How it was run: as §1
# [1] = target: GalNAc(b1-3)Gal(a1-4)Gal(b1-4)GlcNAc
# How it was run: as §1
# GalNAc(b1-3)GalNAc = target: GalNAc(b1-3)GalNAc
# How it was run: as §1
# GalNAc(b1-4)GlcNAc = target: GalNAc(b1-4)GlcNAc
# How it was run: as §1
# Glc(a1-4)Glc = target: Glc(a1-4)Glc
# How it was run: as §1
# Glc(a1-6)Glc(a1-6)Glc = target: Glc(a1-6)Glc(a1-6)Glc
# How it was run: as §1
# Glc(b1-4)Glc = target: Glc(b1-4)Glc
# How it was run: as §1
# Glc(b1-6)Glc = target: Glc(b1-6)Glc
# How it was run: as §1
# GlcA(b1-3)Gal = target: GlcA(b1-3)Gal
# How it was run: as §1
# GlcA(b1-6)Gal = target: GlcA(b1-6)Gal
# How it was run: as §1
# [2] = target: GlcNAc(a1-3)Gal(b1-4)GlcNAc
# How it was run: as §1
# [3] = target: GlcNAc(a1-6)Gal(b1-4)GlcNAc
# How it was run: as §1
# [4] = target: GlcNAc(b1-2)Gal(b1-3)GalNAc
# How it was run: as §1
# [5] = target: GlcNAc(b1-2)Man(a1-3)[GlcNAc(b1-2)Man(a1-6)]Man(b1-4)GlcNAc(b1-4)GlcNAc
# How it was run: as §1
# GlcNAc(b1-3)Gal = target: GlcNAc(b1-3)Gal
# How it was run: as §1
# [6] = target: GlcNAc(b1-3)Gal(b1-3)GalNAc
# How it was run: as §1
# GlcNAc(b1-3)Gal(b1-4)Glc = target: GlcNAc(b1-3)Gal(b1-4)Glc
# How it was run: as §1
# [7] = target: GlcNAc(b1-3)Gal(b1-4)GlcNAc
# How it was run: as §1
# [8] = target: GlcNAc(b1-3)Gal(b1-4)GlcNAc(b1-3)Gal(b1-4)GlcNAc
# How it was run: as §1
# GlcNAc(b1-3)GalNAc = target: GlcNAc(b1-3)GalNAc
# How it was run: as §1
# [9] = target: GlcNAc(b1-3)[GlcNAc(b1-6)]Gal(b1-4)GlcNAc
# How it was run: as §1
# [10] = target: GlcNAc(b1-3)[GlcNAc(b1-6)]GalNAc
# How it was run: as §1
# [11] = target: GlcNAc(b1-3)[GlcNAc(b1-6)]GlcNAc(b1-4)GlcNAc
# How it was run: as §1
# [12] = target: GlcNAc(b1-4)Gal(b1-4)GlcNAc
# How it was run: as §1
# [13] = target: GlcNAc(b1-4)GlcNAc(b1-4)GlcNAc
# How it was run: as §1
# [14] = target: GlcNAc(b1-4)GlcNAc(b1-4)GlcNAc(b1-4)GlcNAc(b1-4)GlcNAc
# How it was run: as §1
# [15] = target: GlcNAc(b1-4)GlcNAc(b1-4)GlcNAc(b1-4)GlcNAc(b1-4)GlcNAc(b1-4)GlcNAc
# How it was run: as §1
# [16] = target: GlcNAc(b1-4)[GlcNAc(b1-6)]GalNAc
# How it was run: as §1
# [17] = target: GlcNAc(b1-6)Gal(b1-4)GlcNAc
# How it was run: as §1
# GlcNAc(b1-6)GalNAc = target: GlcNAc(b1-6)GalNAc
# How it was run: as §1
# Kdn(a2-3)Gal(b1-3)GlcNAc = target: Kdn(a2-3)Gal(b1-3)GlcNAc
# How it was run: as §1
# Kdn(a2-3)Gal(b1-4)GlcNAc = target: Kdn(a2-3)Gal(b1-4)GlcNAc
# How it was run: as §1
binder,measurement,setting,value
B1,glycan array binding signal (z-score),Gal6S(b1-4)GlcNAc,-0.602
same,glycan array binding signal (z-score),GalNAc(a1-3)Gal,0.387
same,glycan array binding signal (z-score),GalNAc(a1-3)GalNAc,0.516
same,glycan array binding signal (z-score),[1],-0.196
same,glycan array binding signal (z-score),GalNAc(b1-3)GalNAc,0.702
same,glycan array binding signal (z-score),GalNAc(b1-4)GlcNAc,0.379
same,glycan array binding signal (z-score),Glc(a1-4)Glc,10.9
same,glycan array binding signal (z-score),Glc(a1-6)Glc(a1-6)Glc,6.96
same,glycan array binding signal (z-score),Glc(b1-4)Glc,2.95
same,glycan array binding signal (z-score),Glc(b1-6)Glc,0.954
same,glycan array binding signal (z-score),GlcA(b1-3)Gal,1.3
same,glycan array binding signal (z-score),GlcA(b1-6)Gal,1.4
same,glycan array binding signal (z-score),[2],0.517
same,glycan array binding signal (z-score),[3],0.413
same,glycan array binding signal (z-score),[4],0.073
same,glycan array binding signal (z-score),[5],0.526
same,glycan array binding signal (z-score),GlcNAc(b1-3)Gal,0.721
same,glycan array binding signal (z-score),[6],-0.178
same,glycan array binding signal (z-score),GlcNAc(b1-3)Gal(b1-4)Glc,0.137
same,glycan array binding signal (z-score),[7],-0.283
same,glycan array binding signal (z-score),[8],-0.178
same,glycan array binding signal (z-score),GlcNAc(b1-3)GalNAc,0.249
same,glycan array binding signal (z-score),[9],0.002
same,glycan array binding signal (z-score),[10],1.36
same,glycan array binding signal (z-score),[11],1.32
same,glycan array binding signal (z-score),[12],0.578
same,glycan array binding signal (z-score),[13],0.673
same,glycan array binding signal (z-score),[14],0.508
same,glycan array binding signal (z-score),[15],-0.053
same,glycan array binding signal (z-score),[16],0.223
same,glycan array binding signal (z-score),[17],1.59
same,glycan array binding signal (z-score),GlcNAc(b1-6)GalNAc,0.309
same,glycan array binding signal (z-score),Kdn(a2-3)Gal(b1-3)GlcNAc,-0.645
same,glycan array binding signal (z-score),Kdn(a2-3)Gal(b1-4)GlcNAc,-0.627
